Drawing on the antibiotic and cytotoxicity screens of Wong et al. (2023), this text covers cytotoxicity call for 40 molecules.

Some of the results follow.

This test deals with HepG2. Description: cytotoxicity call (relative viability < 0.9). Conditions: 10 µM.
With `COc1ccc([Si](C)(C)[C@H]2[C@H](CCn3cc([C@H](O)c4ccccc4)nn3)O[C@@]3(C(=O)N(Cc4cccc(N5CCC5=O)c4)c4ccccc43)[C@@H]2C)cc1`, the cytotoxicity call was “inactive”.
To `O=C(Cc1ccccn1)NCC[C@@H]1CC[C@@H](NC(=O)CN2CCOCC2)[C@@H](CO)O1` belongs “inactive”; to `C[C@@H]1CN([C@@H](C)CO)C(=O)c2cc(NC(=O)Nc3ccc(C(F)(F)F)cc3)ccc2O[C@@H](C)CCCCO[C@H]1CN(C)S(=O)(=O)c1cn(C)cn1`, “inactive”; to `CCCNC(=O)N1CC[C@]2(CC1)CN([C@H](CO)c1[nH]c3cc(ccc3c12)OC)C(=O)CN1CCOCC1`, “inactive”.
Next, `C[C@@H]1CN([C@@H](C)CO)C(=O)Cc2cc(NC(=O)Nc3ccc(C(F)(F)F)cc3)ccc2O[C@H]1CN(C)C(=O)Nc1ccc2c(c1)OCO2`: “inactive”; `CC(C)Nc1ncnc(N)c1[N+](=O)[O-]`: “inactive”.
As for `COc1ccccc1CNC(=O)C[C@H]1C[C@H]2c3cc(NC(=O)Cc4ccncc4)ccc3O[C@H]2[C@@H](CO)O1`, the cytotoxicity call is “inactive”.
To `C[C@H]1CCCCO[C@H](CN(C)C(=O)NC2CCCCC2)[C@@H](C)CN([C@@H](C)CO)C(=O)c2cc(NS(=O)(=O)c3ccccc3)ccc2O1` belongs “inactive”; to `N[C@@H](C(=O)O)c1ccc(C(=O)O)c(O)c1`, “inactive”.
Next, `CO[C@@H]1CN(C)C(=O)c2ccc(NS(C)(=O)=O)cc2OC[C@H](C)N(C(=O)c2ccc3c(c2)OCO3)C[C@H]1C`: “inactive”; `C=CCC[C@@H](Cc1ccc(F)cc1)C(=O)OC[C@@H]1CCCN1C(=O)[C@@H](CC=C)CC(=O)N(CCO)Cc1ccccc1`: “inactive”; `C[C@H]1CCCCO[C@H](CN(C)C(=O)Nc2ccc(C(F)(F)F)cc2)[C@@H](C)CN([C@@H](C)CO)C(=O)c2cc(NS(C)(=O)=O)ccc2O1`: “inactive”.
`CN1C(=O)c2cc(NC(=O)Cc3cccs3)ccc2OC[C@@H]2O[C@H](CC(=O)NCCc3ccncc3)CC[C@H]21`: the cytotoxicity call was “inactive”.
Next, `CCCN1C[C@H](C)[C@H](OC)CN(C)C(=O)c2ccc(NS(=O)(=O)c3cn(C)cn3)cc2OC[C@H]1C`: “inactive”.
Next, `C=CCn1c(=O)c2c(nc(NCCO)n2C)n(C)c1=O`: “inactive”; `COc1ccc2nc(Cl)sc2c1`: “inactive”; `COCCNC(=O)C[C@@H]1CC[C@H]2[C@@H](COC[C@H](O)CN2S(=O)(=O)c2ccccc2F)O1`: “inactive”.
Regarding `Cc1ccc(S(=O)(=O)Nc2ccc3c(c2)C(=O)N([C@H](C)CO)C[C@@H](C)[C@@H](CN(C)Cc2ccc(C(=O)O)cc2)OCCCC[C@H](C)O3)cc1`, the cytotoxicity call was “inactive”.
`COc1ccc(S(=O)(=O)N(C)C[C@H]2Oc3ccc(NS(=O)(=O)c4cccs4)cc3C(=O)N([C@@H](C)CO)C[C@H]2C)cc1`: the cytotoxicity call is “inactive”.
For `Cc1noc(C)c1NC(=O)N(C)C[C@H]1Oc2ccc(NC(=O)C3CC3)cc2CC(=O)N([C@H](C)CO)C[C@@H]1C`, the cytotoxicity call is “inactive”.
To `CN1CCN(C(=O)C[C@@H]2CC[C@H]3[C@@H](COC[C@@H](O)CN3CC3CCCC3)O2)CC1` belongs “inactive”; to `Cn1nnc2c1[C@H](COCC1CC1)CNC2`, “inactive”; to `C[C@H]1CCCCO[C@H](CN(C)S(=O)(=O)c2ccc(Cl)cc2)[C@@H](C)CN([C@@H](C)CO)C(=O)c2cc(NC(=O)c3ccccc3)ccc2O1`, “active”.
In the case of `Cc1ccccc1S(=O)(=O)N1C[C@@H](O)COC[C@H]2O[C@@H](CC(=O)N3CCC(Cc4ccccc4)CC3)CC[C@@H]21`, the cytotoxicity call was “inactive”.
To `CC(C)NC(=O)N(C)C[C@H]1Oc2cc(-c3ccccc3F)ccc2S(=O)(=O)N([C@H](C)CO)C[C@H]1C` belongs “inactive”; to `C[C@H](CO)N1C[C@H](C)[C@H](CN(C)C(=O)Nc2cccc(F)c2)OCCCC[C@H](C)Oc2ccc(NC(=O)C3CCCCC3)cc2C1=O`, “inactive”.
`C[C@@H]1CN([C@H](C)CO)C(=O)c2cc(NC(=O)Nc3cccc4ccccc34)ccc2O[C@H]1CN(C)C(=O)NC1CCCCC1`: the cytotoxicity call was “inactive”.
Next, `C[C@H](CO)N1C[C@H](C)[C@@H](CN(C)Cc2ccc(C(F)(F)F)cc2)Oc2ccc(NC(=O)C3CCCCC3)cc2C1=O`: “inactive”; `C[C@@H]1CN([C@@H](C)CO)C(=O)c2cc(NS(=O)(=O)c3ccccc3)ccc2O[C@@H](C)CCCCO[C@H]1CN(C)Cc1ccc(C(F)(F)F)cc1`: “inactive”; `Cc1ccc(S(=O)(=O)Nc2ccc3c(c2)C(=O)N([C@@H](C)CO)C[C@@H](C)[C@@H](CN(C)S(=O)(=O)c2ccc(F)cc2)O3)cc1`: “inactive”.
Take `CNCC1CCOCC1`: the cytotoxicity call was “inactive”.
As for `CC(=O)CCc1ccc(OC(C)=O)cc1`, the cytotoxicity call is “inactive”.
To `C[C@@H]1CN([C@@H](C)CO)C(=O)Cc2cc(NC(=O)CCN3CCOCC3)ccc2O[C@H]1CN(C)CC1CC1` belongs “inactive”; to `COc1ccc(CN(C)C[C@@H]2OCCCC[C@@H](C)Oc3ccc(NC(=O)Nc4ccc(OC)cc4)cc3C(=O)N([C@H](C)CO)C[C@@H]2C)cc1`, “inactive”; to `O=C(O)C(O)C(O)C(O)C(O)C(=O)O` (stereo not given), “inactive”.
To `C[C@H]1CN([C@@H](C)CO)C(=O)c2cc(C#CCN(C)C)cnc2O[C@H]1CN(C)Cc1cccc(C(=O)O)c1` belongs “inactive”; to `Cc1noc(C)c1NC(=O)N[C@H]1C=C[C@H](CC(=O)NCCCN(C)C)O[C@@H]1CO`, “inactive”.
To `O=C(CS)NCCCCCNC(=O)[C@@H]1C[C@@H]2C(=O)N[C@@H](Cc3ccccc3)C(=O)N2[C@@H]1c1ccc(O)cc1` belongs “inactive”; to `C[C@H]1Cc2cc(S(=O)(=O)N(C)CC(=O)N3CCOCC3)ccc2N1C(=O)C1CC1`, “inactive”.
As for `O=C(C[C@@H]1C=C[C@@H](NC(=O)CN2CCOCC2)[C@@H](CO)O1)NC1CCCCC1`, the cytotoxicity call is “inactive”.
